From PubChem BioAssay (Tox21)
Where “and” joins values, the source holds several entries; their conditions need not be identical. Identical values can stand only once. This list was built around the results that the source calls inconclusive (neither active nor inactive); the mix of calls is not that of the screen. For some of these results: Where the call is inconclusive, the potency comes from a doubtful curve fit. Some structures have more than one record in an assay (separate samples or runs), and their calls can disagree. Calls of active or inactive are those of the source. Unless noted, the call rests on the fitted dose curve; in most records, active means well fitted curve in the direction sought with a large enough effect in the repeat runs; inconclusive means weak or mixed curves; inactive means no such curve, though single readings can be large; an effect the other way counts as inactive or inconclusive.

How the values were obtained:
[1] = qHTS assay to test for compound auto fluorescence at 460 nm (blue) in HEK293 cells (AID 720678); further: potency means the concentration at half of the fitted maximal effect
Summary of the method: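 Intrinsic compound fluorescence is recorded in live HEK293 cultures after overnight incubation at 37C, 5% CO2, using excitation 405 nm and emission 460 nm. Values are referenced to triamterene.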

[2] = qHTS assay to test for compound auto fluorescence at 460 nm (blue) in HEK293 cell free culture (AID 720681); further: potency means the concentration at half of the fitted maximal effect
Summary of the method: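 Blue fluorescence (Ex 405/Em 460 nm, triamterene-equivalent) was read immediately after pin transfer of compound or DMSO into medium (DMEM, 10% FBS) without cells.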

[3] = qHTS assay to test for compound auto fluorescence at 590 nm (red) in HEK293 cells (AID 720679); further: on the % scale 0 is the no-effect control and ±100 the full control effect
Summary of the method: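 Red autofluorescence, HEK293 cells: 2,000 cells/well; attach 4-5 hr 37C; add 23 nL cpd or DMSO; incubate o/n 37C 5% CO2; read Ex540/Em590; Rose Bengal sodium reference.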

[4] = target: Glucocorticoid receptor (Homo sapiens) (UniProt P04150); experiment: qHTS assay to identify small molecule agonists of the glucocorticoid receptor (GR) signaling pathway (AID 720691; active means well fitted activation curve with a large enough effect in the signal ratio in the repeat runs, not every such curve was filed as active; inconclusive means weak or mixed curves, or effect the other way; inactive means no such curve, though single readings can be large or run the other way; the % refers to the signal ratio; further: potency means the concentration at half of the fitted maximal effect; on activation: on the % scale 0 is the no-effect control and ±100 the full control effect); conditions: GR-bla HeLa, beta-lactamase reporter ratio, 18 h; activation: at 62.4 µM (top of the series) unless noted
Summary of the method: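 A HeLa cervical cancer line expressing GR and a glucocorticoid response element-driven beta-lactamase gene is treated with compounds for 18 h; LiveBLAzer B/G FRET substrate is then applied and fluorescence read.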

[5] = qHTS assay for small molecule disruptors of the mitochondrial membrane potential (AID 720635); conditions: HepG2 mitochondrial membrane potential, Mito-MPS dye ratio; ratio activity, negative = MMP loss: at 83.2 µM (top of the series) unless noted; further: potency means the concentration at half of the fitted maximal effect
Summary of the method: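 Mitochondrial membrane potential tracked with Mito-MPS dye, red aggregates (ex 540/em 590 nm) against green monomers (ex 490/em 535 nm). Compound treatment 1 hr at 37C, dye 30 min in HepG2.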

[6] = target: Glucocorticoid receptor (Homo sapiens) (UniProt P04150); experiment: qHTS assay to identify small molecule antagonists of the glucocorticoid receptor (GR) signaling pathway (AID 720692; active means well fitted inhibition curve with a large enough effect in the signal ratio in the repeat runs, not every such curve was filed as active; inconclusive means weak or mixed curves, or effect the other way; inactive means no such curve, though single readings can be large or run the other way; the % refers to the signal ratio; further: potency means the concentration at half of the fitted maximal effect; on activity change, negative = inhibition: on the % scale 0 is the no-effect control and ±100 the full control effect); conditions: GR-bla HeLa, beta-lactamase FRET ratio, dexamethasone-stimulated, 18 h; activity change, negative = inhibition: at 58.5 µM (top of the series) unless noted
Summary of the method: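 GRE-bla HeLa line, dex-stimulated (5 nM final). Compound exposure 18 h, 37 C. Beta-lactamase FRET read after 2 h RT substrate.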

[7] = qHTS assay to test for compound auto fluorescence at 535 nm (green) in HepG2 cell free culture (AID 720686); further: on the % scale 0 is the no-effect control and ±100 the full control effect
[8] = qHTS assay to test for compound auto fluorescence at 460 nm (blue) in HepG2 cells (AID 720687); further: potency means the concentration at half of the fitted maximal effect
Summary of the method: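 Blue-channel autofluorescence (Ex/Em 405/460 nm, triamterene-equivalent) was measured after 1 hr compound exposure at 37 C, 5% CO2. Cells were HepG2, plated overnight at 37 C in MEM plus 10% FBS.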
Tags describe the fitted curve by direction and shape or compound fluorescence and quenching.

Sequence of UniProt P04150 (P04150 whole entry, looked up): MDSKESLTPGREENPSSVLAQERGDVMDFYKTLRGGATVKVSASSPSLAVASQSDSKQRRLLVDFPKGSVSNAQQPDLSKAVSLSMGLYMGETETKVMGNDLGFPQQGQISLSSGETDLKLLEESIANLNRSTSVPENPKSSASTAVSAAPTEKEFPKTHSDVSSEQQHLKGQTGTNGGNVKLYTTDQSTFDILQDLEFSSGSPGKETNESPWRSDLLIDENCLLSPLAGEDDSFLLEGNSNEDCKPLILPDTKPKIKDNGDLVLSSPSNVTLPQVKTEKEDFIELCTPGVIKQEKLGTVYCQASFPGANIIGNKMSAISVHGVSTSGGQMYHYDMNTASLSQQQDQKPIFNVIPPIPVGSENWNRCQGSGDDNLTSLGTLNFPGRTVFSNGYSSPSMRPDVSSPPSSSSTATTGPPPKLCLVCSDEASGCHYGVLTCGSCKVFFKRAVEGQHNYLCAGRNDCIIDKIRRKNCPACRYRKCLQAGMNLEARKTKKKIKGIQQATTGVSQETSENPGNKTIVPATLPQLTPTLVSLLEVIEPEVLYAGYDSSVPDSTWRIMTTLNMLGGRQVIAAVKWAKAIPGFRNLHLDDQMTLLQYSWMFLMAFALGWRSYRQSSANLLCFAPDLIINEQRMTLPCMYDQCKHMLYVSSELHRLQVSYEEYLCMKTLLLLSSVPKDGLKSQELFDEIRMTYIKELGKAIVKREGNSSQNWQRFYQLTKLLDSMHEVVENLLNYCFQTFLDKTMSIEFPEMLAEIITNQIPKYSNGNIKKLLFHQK

With `Nc1cccc(N)n1` the Potency [1] was inconclusive: 39.8 µM [fluorescent, partial curve] and the Potency [2] was inconclusive: 39.8 µM [rising, partial curve, poor fit].
For `C[C@@H]1C[C@H]2[C@@H]3CCC4=CC(=O)C=C[C@]4(C)[C@@]3(F)[C@@H](O)C[C@]2(C)[C@@]1(O)C(=O)CO`, the Potency [3] was “inactive”.
In the case of `C[N+](C)(C)CCCCCC[N+](C)(C)C`, the Potency [2] is reported as “inactive”.
In the case of `COCCc1ccc(OCC(O)CNC(C)C)cc1` (stereo unspecified), the Potency [4] is reported as active: 10.7 µM.
With `Cc1ccc2ccc3cccc4ccc1c2c34` the Potency [5] was active: 38.5 µM and the activity change, negative = inhibition [6] was inconclusive: 26.7%.
In the case of `Cc1c(Cl)cccc1Nc1ccccc1C(=O)O`, the Potency [5] is reported as active: 11.9 µM, the Potency [4] is reported as inconclusive: 7.56 µM [inhibitor, partial curve] and the Potency [6] is reported as inconclusive: 23.9 µM [inhibitor].
In the case of `Brc1c2ccccc2c(Br)c2ccccc12`, the Potency [5] is reported as inconclusive: 0.246 µM [activator, partial curve] and the Potency [6] is reported as inconclusive: 1.76 µM [activator, partial curve].
For `CC(=O)c1ccc2c(c1)Cc1ccccc1-2`, the Potency [5] was inconclusive: 68.7 µM [inhibitor, single point], the activation [4] was inconclusive: -12.2% and the activity change, negative = inhibition [6] was inconclusive: -38.5%.
For `COCCOC(=O)C1=C(C)NC(C)=C(C(=O)OC(C)C)C1c1cccc([N+](=O)[O-])c1` (stereo unspecified), the Potency [5] was inconclusive: 1.33 µM [activator, partial curve, poor fit], the activation [4] was inconclusive: -11.6% and the Potency [6] was inconclusive: 2.39 µM [rising, full curve, poor fit].
With `CC(=O)OCC=C(C)C` the Potency [5] was “inactive” and the activity change, negative = inhibition [6] was inconclusive: 15%.
With `CN(C)C(=N)N=C(N)N` the Potency [5] was inconclusive: 3.2 µM [activator, single point] and inactive, the Potency [4] was active: 2.56 µM and the Potency [6] was inconclusive: 5.12 µM [activator, partial curve].
With `Oc1cccc(Nc2ccccc2)c1` the Potency [5] was active: 25.4 µM and the activity change, negative = inhibition [6] was inconclusive: -31.3% [at 78.9 µM].
For `Cc1cc(C)c(N=Nc2c(O)c(S(=O)(=O)O)cc3cc(S(=O)(=O)O)ccc23)cc1C`, the ratio activity, negative = MMP loss [5] was inconclusive: -2.95% [at 8.08 µM] and the activation [4] was inactive: -1.47% [at 6.9 µM].
In the case of `O=C1CCC(=O)N1Cl`, the ratio activity, negative = MMP loss [5] is reported as inconclusive: 8.07% and the Potency [4] is reported as “inactive”.
For `O=C(c1ccccc1)c1ccccc1O`, the Potency [5] was “inactive and active: 61.1 µM” and the Potency [6] was “inactive”.
With `O=C(Nc1ccc(Oc2ccc(Cl)cc2)c(Cl)c1)c1cc(I)cc(I)c1O` the Potency [5] was active: 2.37 µM, the Potency [4] was inconclusive: 26.8 µM [cytotoxic, single point] and the activity change, negative = inhibition [6] was inconclusive: -51.9%.
For `BrCc1cccc(Oc2ccccc2)c1`, the Potency [5] was inconclusive: 15.4 µM [fluorescent, partial curve] and the activity change, negative = inhibition [6] was inconclusive: 3.72%.
With `Cc1cc(C(=C2C=CC(=Nc3ccc(S(=O)(=O)O)cc3S(=O)(=O)O)C=C2)c2ccc(Nc3ccc(S(=O)(=O)O)cc3)cc2)ccc1N` the Potency [5] was inconclusive: 44.7 µM [fluorescent, partial curve, poor fit], the Potency [4] was “inactive” and the activity change, negative = inhibition [6] was inconclusive: -0.596%.
In the case of `CC1(C)CCC[C@]2(C)[C@H]3CCO[C@]3(C)CC[C@@H]12`, the Potency [5] is reported as inconclusive: 54.5 µM [inhibitor, partial curve], the Potency [4] is reported as “inactive” and the activity change, negative = inhibition [6] is reported as inconclusive: 19.3%.
For `N[C@@H](Cc1ccc(O)cc1)C(=O)O`, the Potency [5] was “inactive” and the Potency [6] was “inactive”.
In the case of `C#CC(O)C(CC)CCCC` (stereo unspecified), the ratio activity, negative = MMP loss [5] is reported as inconclusive: -13.6% and the activity change, negative = inhibition [6] is reported as inconclusive: -24.1%.
With `CCCCCCCCCCCCCCCBr` the ratio activity, negative = MMP loss [5] was inconclusive: -0.118% and the Potency [6] was inconclusive: 21.3 µM [inhibitor, partial curve, poor fit].
For `Cc1cc(C(C)(C)C)c(O)c(C)c1Cn1c(=O)n(Cc2c(C)cc(C(C)(C)C)c(O)c2C)c(=O)n(Cc2c(C)cc(C(C)(C)C)c(O)c2C)c1=O`, the Potency [5] was active: 9.69 µM and the activity change, negative = inhibition [6] was inconclusive: -26.4%.
With `Oc1ccccc1O` the ratio activity, negative = MMP loss [5] was inconclusive: -12.3%, the Potency [4] was inconclusive: 31.3 µM [inhibitor, partial curve] and the Potency [6] was inconclusive: 43.6 µM [inhibitor, partial curve]. For the same compound, the activity change, negative = inhibition [6] was inconclusive: -29.5% [at 78.9 µM].
With `COc1ccc(COC=O)cc1` the Potency [5] was “inactive” and the Potency [4] was “inactive”.
For `CC(C)(C)NSc1nc2ccccc2s1`, the Potency [5] was active: 24.8 µM, the Potency [4] was “inactive” and the activity change, negative = inhibition [6] was inconclusive: -27.5% [at 78.9 µM].
For `O=C1Nc2ccccc2C1(c1ccc(O)cc1)c1ccc(O)cc1`, the Potency [5] was active: 13.7 µM, the activation [4] was inconclusive: -16.8% and the Potency [6] was inconclusive: 54.9 µM [rising, partial curve, poor fit].
With `CNc1ccc([N+](=O)[O-])cc1` the Potency [5] was inconclusive: 43.4 µM [inhibitor, partial curve, poor fit], the Potency [4] was inconclusive: 0.39 µM and the Potency [6] was inconclusive: 0.693 µM [activator, full curve].
With `O=c1[nH]cnc2c1ncn2[C@@H]1O[C@H](CO)[C@@H](O)[C@H]1O` the Potency [5] was “inactive” and the Potency [6] was “inactive”.
In the case of `C[Si](Cl)(c1ccccc1)c1ccccc1`, the Potency [5] is reported as active: 26.6 µM and the Potency [6] is reported as inconclusive: 2.13 µM [activator, single point].
For `COc1cc(C(C)C)c2c(c1)S(=O)(=O)N(COc1cc(=O)n3cccc(OCCN4CCCCC4)c3n1)C2=O`, the ratio activity, negative = MMP loss [5] was inconclusive: 27.9% [at 39.1 µM] and the Potency [4] was inconclusive: 13.1 µM [activator].
With `CC(C)(C)OC(=O)c1ccccc1C(=O)O` the Potency [5] was “inactive” and the Potency [7] was “inactive”.
For `O=C(O)CC(=O)O`, the ratio activity, negative = MMP loss [5] was inconclusive: -1.79%, the Potency [8] was inconclusive: 56.2 µM [fluorescent, partial curve, poor fit] and the Potency [6] was inconclusive: 43.8 µM [activator, partial curve, poor fit].
